Measurements: the supplement of paper PMC9588766
Structures can show the parent of a compound that is named as a salt. The full ranking holds about 1,900 compounds; the median of “cell viability of compound + 1 nM pemigatinib relative to pemigatinib-only (DMSO) wells” is about 0.95, and the lowest 2% start at about 0.22. Some of the results follow.

These molecules were tested on PDC-DUC18828 (assay: cell viability of compound + 1 nM pemigatinib relative to pemigatinib-only (DMSO) wells (fraction); PDC-DUC18828 is a patient-derived cholangiocarcinoma cell line; higher = less growth inhibition). Conditions: first compound 1 µM; pemigatinib concentration 1 nM; 72 h.
Experimental: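 Selleck Bioactive library screen in the patient-derived FGFR2 fusion-positive ICC cell line PDC-DUC18828 (500 cells/well). Each compound was tested at 1 uM with 1 nM pemigatinib, in triplicate, for 72 h. Viability was read by CellTiter-Glo and normalised to plate DMSO controls. Value is the paper's averaged normalised viability.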

| Structure (SMILES) | cell viability |
| --- | --- |
| OC[C@H]1O[C@@H](Oc2ccc(O)cc2)[C@H](O)[C@@H](O)[C@@H]1O [Arbutin] + CCN1C(=O)N(c2c(F)c(OC)cc(OC)c2F)Cc2cnc3[nH]c(CN4CCOCC4)cc3c21 [pemigatinib] | 0.995 |
| O=C(c1ccc(C(=O)N2CCC(N3CCCC3)CC2)c(Nc2ccccc2)c1)N1CCC(N2CCCC2)CC1 + CCN1C(=O)N(c2c(F)c(OC)cc(OC)c2F)Cc2cnc3[nH]c(CN4CCOCC4)cc3c21 [pemigatinib] | 0.954 |
| COc1ccc(NS(=O)(=O)c2ccc(N)cc2)nn1 [Sulfamethoxypyridazine] + CCN1C(=O)N(c2c(F)c(OC)cc(OC)c2F)Cc2cnc3[nH]c(CN4CCOCC4)cc3c21 [pemigatinib] | 0.988 |
| Nc1ccc(C(=O)NCC(=O)O)cc1 [4-Aminohippuric Acid] + CCN1C(=O)N(c2c(F)c(OC)cc(OC)c2F)Cc2cnc3[nH]c(CN4CCOCC4)cc3c21 [pemigatinib] | 0.914 |
| CCCC(=O)O[C@]1(C(=O)COC(C)=O)CC[C@H]2[C@@H]3C[C@H](F)C4=CC(=O)C=C[C@]4(C)[C@@]3(F)[C@@H](O)C[C@@]21C [Difluprednate] + CCN1C(=O)N(c2c(F)c(OC)cc(OC)c2F)Cc2cnc3[nH]c(CN4CCOCC4)cc3c21 [pemigatinib] | 0.847 |
| Cn1c(=O)cc(N2CCC[C@@H](N)C2)n(Cc2cc(F)ccc2C#N)c1=O [Trelagliptin] + CCN1C(=O)N(c2c(F)c(OC)cc(OC)c2F)Cc2cnc3[nH]c(CN4CCOCC4)cc3c21 [pemigatinib] | 0.934 |
| N#Cc1ccc(-c2c(-c3ncn[nH]3)sc(N3CCOCC3)c2C#N)c(F)c1 + CCN1C(=O)N(c2c(F)c(OC)cc(OC)c2F)Cc2cnc3[nH]c(CN4CCOCC4)cc3c21 [pemigatinib] | 0.589 |
| C=C1c2cccc(O)c2C(=O)C2=C(O)[C@]3(O)C(=O)C(C(N)=O)=C(O)[C@@H](N(C)C)[C@@H]3[C@@H](O)[C@H]12 [Methacycline HCl] + CCN1C(=O)N(c2c(F)c(OC)cc(OC)c2F)Cc2cnc3[nH]c(CN4CCOCC4)cc3c21 [pemigatinib] | 0.965 |
| Clc1cccc(-c2nnnn2Cc2cccnc2)c1Cl + CCN1C(=O)N(c2c(F)c(OC)cc(OC)c2F)Cc2cnc3[nH]c(CN4CCOCC4)cc3c21 [pemigatinib] | 0.933 |
| COc1cccc(-c2ccc(NC(=O)C3=C(C(=O)O)CCC3)c(F)c2)c1 [Vidofludimus] + CCN1C(=O)N(c2c(F)c(OC)cc(OC)c2F)Cc2cnc3[nH]c(CN4CCOCC4)cc3c21 [pemigatinib] | 0.972 |
| Cc1cc(=O)oc2cc(O)ccc12 [4-Methylumbelliferone (4-MU)] + CCN1C(=O)N(c2c(F)c(OC)cc(OC)c2F)Cc2cnc3[nH]c(CN4CCOCC4)cc3c21 [pemigatinib] | 0.979 |
| C/C=C1/[C@H](O[C@@H]2O[C@H](CO)[C@@H](O)[C@H](O)[C@H]2O)OC=C(C(=O)OC)[C@H]1CC(=O)OCCc1ccc(O)c(O)c1 [Oleuropein] + CCN1C(=O)N(c2c(F)c(OC)cc(OC)c2F)Cc2cnc3[nH]c(CN4CCOCC4)cc3c21 [pemigatinib] | 0.905 |
| CC(C)(C)Cn1c(N)nc2ccc(-c3[nH]c(C(C)(C)C)nc3-c3ccc(F)cc3)nc21 + CCN1C(=O)N(c2c(F)c(OC)cc(OC)c2F)Cc2cnc3[nH]c(CN4CCOCC4)cc3c21 [pemigatinib] | 0.859 |
| CCCN[C@H]1CCc2nc(N)sc2C1 [Pramipexole] + CCN1C(=O)N(c2c(F)c(OC)cc(OC)c2F)Cc2cnc3[nH]c(CN4CCOCC4)cc3c21 [pemigatinib] | 0.995 |
| O=C(NC1CCN(CCCCC2(C(=O)NCC(F)(F)F)c3ccccc3-c3ccccc32)CC1)c1ccccc1-c1ccc(C(F)(F)F)cc1 [Lomitapide Mesylate] + CCN1C(=O)N(c2c(F)c(OC)cc(OC)c2F)Cc2cnc3[nH]c(CN4CCOCC4)cc3c21 [pemigatinib] | 0.881 |
| COc1ccc(C(=O)CC2(O)C(=O)Nc3c(Cl)ccc(Cl)c32)cc1 (configuration not stated) + CCN1C(=O)N(c2c(F)c(OC)cc(OC)c2F)Cc2cnc3[nH]c(CN4CCOCC4)cc3c21 [pemigatinib] | 0.74 |
| CCOC(=O)c1ccc(OC(=O)CCCCCNC(=N)N)cc1 [Gabexate Mesylate] + CCN1C(=O)N(c2c(F)c(OC)cc(OC)c2F)Cc2cnc3[nH]c(CN4CCOCC4)cc3c21 [pemigatinib] | 1.02 |
| Cc1c(-c2ccnn2C)cc(C(=O)NCc2ccc(S(C)(=O)=O)cn2)c(=O)n1-c1cccc(C(F)(F)F)c1 [Alvelestat (AZD9668)] + CCN1C(=O)N(c2c(F)c(OC)cc(OC)c2F)Cc2cnc3[nH]c(CN4CCOCC4)cc3c21 [pemigatinib] | 0.965 |
| COc1cc(/C=C/C(=O)N2CCN(CC(=O)N3CCCC3)CC2)cc(OC)c1OC [Cinepazide maleate] + CCN1C(=O)N(c2c(F)c(OC)cc(OC)c2F)Cc2cnc3[nH]c(CN4CCOCC4)cc3c21 [pemigatinib] | 0.931 |

| Structure (SMILES) | cell viability |
| --- | --- |
| O=C(Nc1ccc(OC(F)(F)F)cc1)c1sccc1NCc1ccnc2ccccc12 + CCN1C(=O)N(c2c(F)c(OC)cc(OC)c2F)Cc2cnc3[nH]c(CN4CCOCC4)cc3c21 [pemigatinib] | 0.964 |
| CC(=O)Nc1cccc2c1c(Sc1ccc(Cl)cc1)c(C)n2CC(=O)O + CCN1C(=O)N(c2c(F)c(OC)cc(OC)c2F)Cc2cnc3[nH]c(CN4CCOCC4)cc3c21 [pemigatinib] | 1.08 |
| CCCNC(C)C(=O)Nc1ccccc1C (configuration not stated) [Prilocaine] + CCN1C(=O)N(c2c(F)c(OC)cc(OC)c2F)Cc2cnc3[nH]c(CN4CCOCC4)cc3c21 [pemigatinib] | 0.993 |
| Nc1ncn([C@@H]2O[C@H](CO)[C@@H](O)[C@H]2O)c(=O)n1 [Azacitidine] + CCN1C(=O)N(c2c(F)c(OC)cc(OC)c2F)Cc2cnc3[nH]c(CN4CCOCC4)cc3c21 [pemigatinib] | 0.9 |
| CC(COc1ccccc1)N(CCCl)Cc1ccccc1 (configuration not stated) [Phenoxybenzamine HCl] + CCN1C(=O)N(c2c(F)c(OC)cc(OC)c2F)Cc2cnc3[nH]c(CN4CCOCC4)cc3c21 [pemigatinib] | 0.951 |
| COC1=C(OC)C(=O)C(CCCCCCCCCCO)=C(C)C1=O [Idebenone] + CCN1C(=O)N(c2c(F)c(OC)cc(OC)c2F)Cc2cnc3[nH]c(CN4CCOCC4)cc3c21 [pemigatinib] | 1.02 |
| CCOC(=O)[C@H](CCc1ccccc1)N[C@H]1CCc2ccccc2N(CC(=O)O)C1=O [Benazepril HCl] + CCN1C(=O)N(c2c(F)c(OC)cc(OC)c2F)Cc2cnc3[nH]c(CN4CCOCC4)cc3c21 [pemigatinib] | 1.07 |
| Cn1cc(-c2ccc(F)c(C(F)(F)F)c2)nc1C1CCN(c2ncnc3[nH]ncc23)CC1 + CCN1C(=O)N(c2c(F)c(OC)cc(OC)c2F)Cc2cnc3[nH]c(CN4CCOCC4)cc3c21 [pemigatinib] | 0.923 |
| O=C(Nc1c[nH]nc1-c1nc2ccc(CN3CCOCC3)cc2[nH]1)NC1CC1 + CCN1C(=O)N(c2c(F)c(OC)cc(OC)c2F)Cc2cnc3[nH]c(CN4CCOCC4)cc3c21 [pemigatinib] | 0.552 |
| O=C(Nc1cccc2c(=O)cc(-c3nnn[nH]3)oc12)c1ccc(OCCCCc2ccccc2)cc1 [Pranlukast] + CCN1C(=O)N(c2c(F)c(OC)cc(OC)c2F)Cc2cnc3[nH]c(CN4CCOCC4)cc3c21 [pemigatinib] | 0.977 |
| Cc1ccc(C(=O)Nc2ccc(CN3CCN(C)CC3)c(C(F)(F)F)c2)cc1C#Cc1cnc2cccnn12 + CCN1C(=O)N(c2c(F)c(OC)cc(OC)c2F)Cc2cnc3[nH]c(CN4CCOCC4)cc3c21 [pemigatinib] | 0.258 |
| CC(C)(C)NC[C@H](O)COc1nsnc1N1CCOCC1 [Timolol Maleate] + CCN1C(=O)N(c2c(F)c(OC)cc(OC)c2F)Cc2cnc3[nH]c(CN4CCOCC4)cc3c21 [pemigatinib] | 0.997 |
| O=C(c1cccc(Cl)c1F)N1CCN(Cc2cccc(Nc3nccs3)n2)CC1 + CCN1C(=O)N(c2c(F)c(OC)cc(OC)c2F)Cc2cnc3[nH]c(CN4CCOCC4)cc3c21 [pemigatinib] | 0.324 |
| CC(C)[C@H]1C(=O)N[C@@H](CCCNC(=N)N)C(=O)NCC(=O)N[C@@H](CC(=O)O)C(=O)N[C@H](Cc2ccccc2)C(=O)N1C [Cilengitide] + CCN1C(=O)N(c2c(F)c(OC)cc(OC)c2F)Cc2cnc3[nH]c(CN4CCOCC4)cc3c21 [pemigatinib] | 0.933 |
| COc1cc(OC)c2c(=O)[nH]c(-c3cc(C)c(OCCO)c(C)c3)nc2c1 + CCN1C(=O)N(c2c(F)c(OC)cc(OC)c2F)Cc2cnc3[nH]c(CN4CCOCC4)cc3c21 [pemigatinib] | 1.06 |
| CN(C)Cc1c(C(=O)NCCOc2ccc(C(=O)NO)cc2)oc2ccccc12 + CCN1C(=O)N(c2c(F)c(OC)cc(OC)c2F)Cc2cnc3[nH]c(CN4CCOCC4)cc3c21 [pemigatinib] | 0.96 |
| O=C1CN2Cc3c(ccc(Cl)c3Cl)N=C2N1 [Anagrelide HCl] + CCN1C(=O)N(c2c(F)c(OC)cc(OC)c2F)Cc2cnc3[nH]c(CN4CCOCC4)cc3c21 [pemigatinib] | 0.852 |
| Nc1nc(Cl)nc2c1ncn2[C@@H]1O[C@H](CO)[C@@H](O)[C@@H]1F [Clofarabine] + CCN1C(=O)N(c2c(F)c(OC)cc(OC)c2F)Cc2cnc3[nH]c(CN4CCOCC4)cc3c21 [pemigatinib] | 0.236 |
